Results on 94 sequences are retold here after PMC6212790.

This is one part of the list. At the low end of the ranking the order means little.

For this experiment, the target named is T1, GST-Rok-C97-191 (UniProt O34857).
T1 sequence: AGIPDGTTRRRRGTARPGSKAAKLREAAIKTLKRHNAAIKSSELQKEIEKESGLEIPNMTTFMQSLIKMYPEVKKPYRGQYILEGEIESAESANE
The experiment in a line: protein binding microarray.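 Further: rank score from −0.5 (least bound) to 0.5 (best bound).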 Particulars: Rok is a gene silencer of Bacillus subtilis; high values mean tight binding; most listed sequences are background and not binding sites; double strand, one strand shown.
Sequence AGGGCGGG displayed a binding signal of -0.287 E-score.
On to AAATGCGG, for which the binding signal was -0.0479 E-score.
The figure for ACAGGTAT is 0.0727 E-score; for GGAATCAA it is 0.0197 E-score; for AAGGCGCG it is -0.264 E-score.
The figure for CACACTGG is -0.21 E-score; for ATTTACAA it is 0.311 E-score.
In the case of CTCGACTA, the binding signal is -0.0586 E-score.
The figure for ATGTTGCG is 0.0814 E-score; for AACCCGGC it is -0.107 E-score; for GGGGTCCA it is -0.381 E-score.
The sequence AGACGACT displayed a binding signal of -0.0103 E-score.
Then ACATGTGC, with -0.245 E-score.
Then ACCCTACA, with 0.0887 E-score; and ACGGTTCC, with -0.145 E-score; and GGGCCCTA, with -0.267 E-score.
Consider ACTTGAGA, for which the binding signal is -0.11 E-score.
Then CATCATCA, with -0.00228 E-score; and AAATCCGT, with -0.0518 E-score.
Regarding ACGTCCCT, the binding signal was -0.276 E-score.
The figure for ATGTTCCG is -0.134 E-score.
ATCACAAG registered a binding signal of -0.208 E-score.
Then GACCCCTA, with -0.256 E-score; and GCATTATA, with 0.119 E-score.
Then ACCATGCA, with 0.05 E-score; and AATGAGAA, with 0.0746 E-score; and AGCTCCGG, with -0.0306 E-score.
The figure for AGAGTAAT is 0.171 E-score; for AGACCCGG it is -0.0852 E-score; for TCATCGGA it is -0.0475 E-score.
For the sequence TACTGACA, the binding signal was determined as 0.139 E-score.
Sequence CAATATGA yielded a binding signal of -0.0102 E-score.
The figure for TCTCCAGA is 0.00704 E-score; for ACCCACCC it is -0.0079 E-score.
ATTTTCTC yielded a binding signal of 0.255 E-score.
The figure for ATATGCGG is -0.00039 E-score.
The figure for CATATATA is 0.353 E-score; for CCCATTAC it is -0.0975 E-score.
Then CTCAGAAC, with -0.0254 E-score.
In turn, CCCCCAGA showed a binding signal of -0.322 E-score.
CGCTAGTA showed a binding signal of 0.288 E-score.
The figure for GGAGGGGA is -0.305 E-score.
ATTTCCAC showed a binding signal of 0.0511 E-score.
Then ACTTTTAA, with 0.18 E-score.
The figure for CGTAGCTA is 0.289 E-score; for GTCCACAA it is -0.159 E-score; for ACTCCTCC it is -0.188 E-score.
Then CAAATTAA, with 0.151 E-score; and AACCTCAT, with -0.021 E-score; and ACTAGCCC, with -0.181 E-score.
TCTCTGAA gave a binding signal of -0.0114 E-score.
CCTCTCAG came in with a binding signal of -0.209 E-score.
The figure for CCAGTGGG is -0.163 E-score.
As for ACACGAGA, the binding signal is -0.085 E-score.
As to CCCCGGTC, the binding signal was -0.153 E-score.
Then ATGCGCTG, with 0.0785 E-score; and CGACGCAC, with -0.208 E-score; and GTGACGCA, with -0.0754 E-score.
As to ACCGGACT, the binding signal was -0.0634 E-score.
Then TAAAGAGA, with 0.0594 E-score; and GGACTAAA, with 0.0947 E-score; and GTAATTCA, with 0.231 E-score.
Turning to CATACGGC, the binding signal is -0.237 E-score.
The figure for ATTTTGAC is 0.235 E-score; for GCTTCGCC it is -0.154 E-score; for CAGCCCCA it is -0.194 E-score.
The figure for CGAGTGAC is -0.202 E-score; for CGGGTCAA it is -0.231 E-score; for CTTATAAG it is 0.193 E-score.
Then AGATGTCC, with -0.208 E-score.
The sequence ATGGCTAG displayed a binding signal of 0.0416 E-score.
With ATTCAAGA, the binding signal was -0.0708 E-score.
Then GGGGCCCC, with -0.386 E-score; and ATTGCGCG, with 0.106 E-score; and CCACTAGC, with -0.0872 E-score.
The figure for ATAGCACA is -0.0082 E-score.
Then AGAACCCT, with -0.282 E-score.
GACTCCTC: the binding signal was -0.29 E-score.
Regarding CACTACCG, the binding signal was 0.065 E-score.
The figure for TACAAGCA is 0.0903 E-score; for CGATTGAC it is -0.0318 E-score.
ATCTACAG had a binding signal of 0.309 E-score.
The figure for ACAAAGCT is 0.103 E-score; for CAAAGGCG it is -0.161 E-score.
The figure for CGAACCAA is -0.129 E-score; for AAAACGGA it is -0.107 E-score; for GTGCGAGA it is -0.108 E-score.
For the sequence ATTTACCG, the binding signal amounted to 0.282 E-score.
Then TACGAATA, with 0.203 E-score.
The figure for AAAAACAG is 0.154 E-score.
TGGCCAAA gave a binding signal of 0.00403 E-score.
The figure for CACTCAAC is 0.0322 E-score; for CGGACTGA it is -0.294 E-score; for CTTACGGA it is -0.0436 E-score.
